PMC9911399, “Two distinct binding modes provide the RNA-binding protein RbFox with extraordinary sequence specificity”
Positions count from the first letter of the chain named. The list shows a part of the results.

T1: RBFOX1 RRM RbFoxmut (Fox-RRM*) (Homo sapiens, UniProt Q9NWB1 109-208, R118D;E147R;N151S;E152T)
T1 sequence: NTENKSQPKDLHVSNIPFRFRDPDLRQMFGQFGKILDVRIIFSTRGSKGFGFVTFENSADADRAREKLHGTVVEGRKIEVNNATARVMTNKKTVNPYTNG

B1: CCAAAGU (DNA:RNA)
RNA: GGGAGACCGGAAUUCAGAUUGUCCCCAAAGUUUAAAUCCCGUCGUAGCCACCA
DNA 1: CAATCTGAATTCCGGTCTCCC
DNA 2: TGGTGGCTACGACGGGATT
B2: GCAAUAA (DNA:RNA)
RNA: B1 RNA with C25G, A29U, G30A, U31A
DNA 1: CAATCTGAATTCCGGTCTCCC
DNA 2: TGGTGGCTACGACGGGATT
B3: ACGGGGG (DNA:RNA)
RNA: B1 RNA with C25A, A27G, A28G, A29G, U31G
DNA 1: CAATCTGAATTCCGGTCTCCC
DNA 2: TGGTGGCTACGACGGGATT
B4: GCUGAUU (DNA:RNA)
RNA: B1 RNA with C25G, A27U, A28G, G30U
DNA 1: CAATCTGAATTCCGGTCTCCC
DNA 2: TGGTGGCTACGACGGGATT
B5: ACCGACA (DNA:RNA)
RNA: B1 RNA with C25A, A27C, A28G, G30C, U31A
DNA 1: CAATCTGAATTCCGGTCTCCC
DNA 2: TGGTGGCTACGACGGGATT
B6: UGUAUCU (DNA:RNA)
RNA: B1 RNA with C25U, C26G, A27U, A29U, G30C
DNA 1: CAATCTGAATTCCGGTCTCCC
DNA 2: TGGTGGCTACGACGGGATT
B7: AUGUCAA (DNA:RNA)
RNA: GGGAGACCGGAAUUCAGAUUGUCCAUGUCAAUUAAAUCCCGUCGUAGCCACCA
DNA 1: CAATCTGAATTCCGGTCTCCC
DNA 2: TGGTGGCTACGACGGGATT
B8: GGGUUCG (DNA:RNA)
RNA: B7 RNA with A25G, U26G, C29U, A30C, A31G
DNA 1: CAATCTGAATTCCGGTCTCCC
DNA 2: TGGTGGCTACGACGGGATT
B9: GUGGUAG (DNA:RNA)
RNA: B7 RNA with A25G, U28G, C29U, A31G
DNA 1: CAATCTGAATTCCGGTCTCCC
DNA 2: TGGTGGCTACGACGGGATT
B10: UAUAAAG (DNA:RNA)
RNA: B1 RNA with C25U, C26A, A27U, G30A, U31G
DNA 1: CAATCTGAATTCCGGTCTCCC
DNA 2: TGGTGGCTACGACGGGATT
B11: AAGUACA (DNA:RNA)
RNA: B7 RNA with U26A, C29A, A30C
DNA 1: CAATCTGAATTCCGGTCTCCC
DNA 2: TGGTGGCTACGACGGGATT
B12: UUGGAUU (DNA:RNA)
RNA: B7 RNA with A25U, U28G, C29A, A30U, A31U
DNA 1: CAATCTGAATTCCGGTCTCCC
DNA 2: TGGTGGCTACGACGGGATT
B13: UAAUGUU (DNA:RNA)
RNA: B1 RNA with C25U, C26A, A28U, A29G, G30U
DNA 1: CAATCTGAATTCCGGTCTCCC
DNA 2: TGGTGGCTACGACGGGATT
B14: CCAGACC (DNA:RNA)
RNA: B1 RNA with A28G, G30C, U31C
DNA 1: CAATCTGAATTCCGGTCTCCC
DNA 2: TGGTGGCTACGACGGGATT
B15: AUGCGUC (DNA:RNA)
RNA: B7 RNA with U28C, C29G, A30U, A31C
DNA 1: CAATCTGAATTCCGGTCTCCC
DNA 2: TGGTGGCTACGACGGGATT
B16: CAUAAAA (DNA:RNA)
RNA: B1 RNA with C26A, A27U, G30A, U31A
DNA 1: CAATCTGAATTCCGGTCTCCC
DNA 2: TGGTGGCTACGACGGGATT
B17: ACGGCCU (DNA:RNA)
RNA: B7 RNA with U26C, U28G, A30C, A31U
DNA 1: CAATCTGAATTCCGGTCTCCC
DNA 2: TGGTGGCTACGACGGGATT
B18: GCACACU (DNA:RNA)
RNA: B1 RNA with C25G, A28C, G30C
DNA 1: CAATCTGAATTCCGGTCTCCC
DNA 2: TGGTGGCTACGACGGGATT
B19: CGCCACC (DNA:RNA)
RNA: B1 RNA with C26G, A27C, A28C, G30C, U31C
DNA 1: CAATCTGAATTCCGGTCTCCC
DNA 2: TGGTGGCTACGACGGGATT
B20: UAUUCAG (DNA:RNA)
RNA: B7 RNA with A25U, U26A, G27U, A31G
DNA 1: CAATCTGAATTCCGGTCTCCC
DNA 2: TGGTGGCTACGACGGGATT

These binders were tested against T1, RBFOX1 RRM RbFoxmut (Fox-RRM*) (assay: EMSA; HiTS-Eq, 1 nM pool, 10 min; buffer printed only for the single-RNA assays: 10 mM Tris pH 7.5, 150 mM NaCl, 3.4 mM EDTA, 0.001% NP-40, 30 C). Conditions: tags: His6 N-terminal (pET28a); label: 5' 32P.
Outline: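 Purified RbFox RRM (wild type or mutant) was equilibrated for 10 min in 50 µL with 1 nM of a 5′-radiolabelled pool of RNA with 7 randomized nucleotides, its flanks annealed to DNA oligonucleotides, across increasing protein concentrations. Free RNA was separated by 8% native PAGE, excised, reverse-transcribed, PCR-barcoded and sequenced on an Illumina HiSeq 2500. Relative association constants came from read-count changes of each variant against the control reaction, normalised to the cognate motif.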

Row | Binder | binding signal
1 | B1 | 0.138 KA relative to UGCAUGU
2 | B2 | 0.0707 KA relative to UGCAUGU
3 | B3 | 0.118 KA relative to UGCAUGU
4 | B4 | 0.101 KA relative to UGCAUGU
5 | B5 | 0.0551 KA relative to UGCAUGU
6 | B6 | 0.296 KA relative to UGCAUGU
7 | B7 | 0.105 KA relative to UGCAUGU
8 | B8 | 0.4 KA relative to UGCAUGU
9 | B9 | 0.181 KA relative to UGCAUGU
10 | B10 | 0.0905 KA relative to UGCAUGU
11 | B11 | 0.0952 KA relative to UGCAUGU
12 | B12 | 0.106 KA relative to UGCAUGU
13 | B13 | 0.0816 KA relative to UGCAUGU
14 | B14 | 0.11 KA relative to UGCAUGU
15 | B15 | 0.17 KA relative to UGCAUGU
16 | B16 | 0.0891 KA relative to UGCAUGU
17 | B17 | 0.0862 KA relative to UGCAUGU
18 | B18 | 0.0704 KA relative to UGCAUGU
19 | B19 | 0.0697 KA relative to UGCAUGU
20 | B20 | 0.106 KA relative to UGCAUGU
